Test results from PubChem BioAssay AID2202238 (Ras Initiative Chemistry Research Team, Frederick National …, 2025).
Some of the results follow. These are further read-outs of the screen, such as a control signal, another cell line or another target. No call is given for them.

Biological target: GTPase KRas (Homo sapiens) (UniProt P01116)
Assay: Cysteine mutants labelled by reactive fragments (mass read-out) (AID 2202238)
Design: protein at 5 µM with 500 µM competing thiol for 1.5 h
Conditions: KRAS G12D cysteine mutants, disulfide tethering, MALDI-TOF labeling, stronger effect = higher value, fragment at 500 µM
[1] = measured here: G60C mutant labeling
[2] = measured here: G75C mutant labeling
[3] = measured here: H94C mutant labeling
[4] = measured here: I36C mutant labeling
[5] = measured here: L120C mutant labeling
[6] = measured here: M67C mutant labeling
[7] = measured here: M72C mutant labeling
[8] = measured here: N26C mutant labeling
[9] = measured here: N86C mutant labeling
[10] = measured here: P121C mutant labeling
[11] = measured here: S122C mutant labeling
[12] = measured here: S136C mutant labeling

Sequence of UniProt P01116 (P01116 whole entry, looked up, the tested form may be a part): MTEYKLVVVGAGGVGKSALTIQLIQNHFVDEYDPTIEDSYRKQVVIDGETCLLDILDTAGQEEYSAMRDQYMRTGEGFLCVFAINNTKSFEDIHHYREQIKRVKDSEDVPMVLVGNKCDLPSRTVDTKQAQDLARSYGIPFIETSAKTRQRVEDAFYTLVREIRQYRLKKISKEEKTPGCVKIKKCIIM

Structure (SMILES) | percent labeling [1] [%] | percent labeling [2] [%] | percent labeling [3] [%] | percent labeling [4] [%] | percent labeling [5] [%] | percent labeling [6] [%] | percent labeling [7] [%] | percent labeling [8] [%] | percent labeling [9] [%] | percent labeling [10] [%] | percent labeling [11] [%] | percent labeling [12] [%]
CC(CC(=O)NCCS)c1ccccc1Br (configuration not stated) | 53.9 | 16.1 | 27.1 | 20.8 | 32.4 | 38.3 | 45.4 | 33.2 | 17.3 | 31.7 | 20.1 | 35.6
Cc1cc2occ(CC(=O)NCCS)c2cc1C | 31.3 | 12.9 | 8.5 | 15.5 | 14.9 | 9.5 | 31.9 | 26.6 | 5.8 | 9.9 | 10.3 | 12.2
O=C(NCCS)c1cc(-c2ccco2)n(-c2cccc(Cl)c2)n1 | 11 | 12.3 | 9.5 | 6 | 10.5 | 3.5 | 10.9 | 8.2 | 3.3 | 5.4 | 0 | 15.2
O=C(NCCS)c1c(C(F)(F)F)oc2ccccc12 | 62.2 | 14.9 | 22.6 | 12.7 | 23.9 | 15.5 | 35 | 33.2 | 16.8 | 19.2 | 14.6 | 19.4
O=C(NCCS)c1cccnc1OCC(F)(F)F | 48.2 | 24.5 | 39.1 | 19.3 | 32.7 | 26.3 | 34 | 34.1 | 23.3 | 22.8 | 26.3 | 33.5
O=C(NCCS)c1cncc(N2CCCC2=O)c1 | 22.2 | 12.5 | 30 | 23.7 | 36.7 | 32.9 | 26.3 | 41.2 | 21.8 | 25.6 | 30.4 | 47.1
O=C(CCS)NCCOc1ncc(C(F)(F)F)cc1Cl |  | 8.7 | 36.5 | 27.4 | 20.2 | 29.1 | 20 |  | 18.3 | 20.5 | 17.5 | 38.6
COC1(c2nc(Cc3ccccc3)no2)CCN(C(=O)CCS)CC1 |  | 12.7 | 19.1 | 26.4 | 15.8 | 31.3 | 18.4 |  | 18 | 16.3 | 16.3 | 33.5
O=C(NCCS)C1CC12CCCc1ccccc12 (configuration not stated) | 27.1 | 11.3 | 9.6 | 9.6 | 12.9 | 16.8 | 26.8 | 26.3 | 3.6 | 19.7 | 8.9 | 25
Cc1nc(C(C)(C)C)[nH]c(=O)c1C(=O)NCCS | 17.6 | 8.7 | 25.5 | 18.5 | 37.2 | 19.7 | 13.8 | 29.7 | 20.9 | 28.7 | 24.7 | 39.4
CCc1csc(-n2cc(C(=O)NCCS)cn2)n1 | 26.8 | 14.1 | 19.2 | 15.8 | 25.3 | 14.3 | 44.9 | 39.4 | 14.6 | 18.1 | 16.2 | 35
Cc1ccc(N(Cc2cnn(C)c2)C(=O)CCS)cc1 |  | 22 | 54.4 | 33.3 | 31.6 | 40.8 | 34.6 |  | 31.8 | 34.8 | 34.1 | 62.5
O=C(NCCS)c1nn(-c2cccc(Br)c2)c2c1CCCC2 | 36.4 | 16.4 | 17.7 | 14.5 | 19.2 | 6.2 | 67.3 | 16.4 | 8.4 | 13.1 | 3.8 | 34.6
Cc1[nH]c2ccccc2c1-c1csc(NC(=O)CCS)n1 |  | 15.4 | 21 | 23.4 | 16.8 | 25.4 | 48 |  | 17.4 | 16.9 | 7.2 | 50.1
O=C(NCCS)C12CCC(C(F)(F)F)(CC1)CC2 | 58.4 | 16.9 | 28.3 | 23.7 | 28.3 | 20 | 21.6 | 36.4 | 21.6 | 22.8 | 20.9 | 30
O=C1COc2cc(F)c(C(=O)NCCS)cc2N1 | 15.8 | 10.1 | 19.9 | 11 | 16 | 11.8 | 35.5 | 27.3 | 16.4 | 11.3 | 9.2 | 18.8
O=C(CN(Cc1ccco1)c1cccc(Cl)c1)NCCS | 37 | 10.3 | 13.4 | 9.7 | 9.8 | 9.1 | 22.1 | 20 | 8.1 | 14.5 | 6.9 | 16.7
Cn1c(C(=O)NCCS)cc2ccccc2c1=O | 40.5 | 17.3 | 29.6 | 22.7 | 26.3 | 32.4 | 34.2 | 44.2 | 22.8 | 53.5 | 12.6 | 51.2
O=C(CCS)Nc1cnc(Oc2ccccc2)nc1 |  | 12.5 | 29.5 | 27.3 | 22.1 | 68.6 | 39.3 |  | 16.6 | 21.7 | 25 | 48.7
O=C(Cc1c[nH]c2ccccc12)NC1(C(=O)NCCS)CCCC1 | 19.1 | 0 | 8.1 | 4.7 | 8.1 | 15.6 | 5.1 | 10.4 | 4.5 | 4.4 | 4 | 10.2
O=C(CCS)NCc1cc(-c2ccco2)on1 |  | 11.7 | 22.2 | 35.8 | 23.9 | 28.6 | 28.2 |  | 30.7 | 26.9 | 25.9 | 42.2
O=C(NCCS)[C@H]1CCO[C@@H]1c1cccnc1 | 21.2 | 9.1 | 21.5 | 28 | 18.6 | 23.6 | 10.8 | 29.4 | 9.3 | 22.4 | 25.2 | 39.3
CC(NC(=O)CCS)C(O)c1cccc(F)c1 (configuration not stated) |  | 11.3 | 34.2 | 31 | 31.1 | 31.4 | 28.2 |  | 17.3 | 39.9 | 33.6 | 50.4

Structure (SMILES) | percent labeling [1] [%] | percent labeling [2] [%] | percent labeling [3] [%] | percent labeling [4] [%] | percent labeling [5] [%] | percent labeling [6] [%] | percent labeling [7] [%] | percent labeling [8] [%] | percent labeling [9] [%] | percent labeling [10] [%] | percent labeling [11] [%] | percent labeling [12] [%]
CC1CN(Cc2ccccc2)CC1C(=O)NCCS (configuration not stated) | 52 | 59.9 | 44.4 | 46.6 | 39.6 | 65.1 | 37.1 | 48.4 | 37.7 | 35.1 | 35.2 | 63.1
CCn1cc(Cn2cc(Cl)c(NC(=O)CCS)n2)cn1 |  | 16.6 | 42.6 | 44.1 | 41.6 | 40.6 | 39 |  | 56.2 | 31.8 | 33.3 | 50.8
Cn1nccc1-c1[nH]ncc1CNC(=O)CCS |  | 10.1 | 28.9 | 39 | 25.8 | 31.4 | 18.4 |  | 17.6 | 31 | 35 | 50
O=C(CCS)N1CCC(c2cccc(F)c2)CC1 |  | 21.4 | 26.8 | 25.1 | 23.9 | 24.6 | 41.1 |  | 21.8 | 25.6 | 19.4 | 48.2
CCn1ncc(C(=O)NCCS)c1-c1ccccc1 | 59.8 | 24.7 | 51.5 | 31 | 48.2 | 44.6 | 47.8 | 42.8 | 26.6 | 33.7 | 37.7 | 67.4
O=C(NCCS)C1CCN(S(=O)(=O)c2ccccc2C2CCCCC2)CC1 | 10.3 | 9.4 | 7 | 2.4 | 6.3 | 1.9 | 9.8 | 5.8 | 0 | 3.1 | 0 | 6.5
O=C(NCCS)C1CC(=O)N(CCOc2ccccc2Cl)C1 (configuration not stated) | 58 | 26.7 | 40.1 | 34 | 37.6 | 73.9 | 46.9 | 38.7 | 22 | 36.4 | 27.9 | 61.5
COc1cc(NC(=O)CCS)c(C(N)=O)cc1OC |  | 22.4 | 28.6 | 29.1 | 41.1 | 32.9 | 37.1 |  | 13 | 27.3 | 31.5 | 52
O=C(NCCS)C1CC(=O)N(Cc2ccco2)C1 (configuration not stated) | 22 | 7 | 25.1 | 23.5 | 31.1 | 25.8 | 12.7 | 27.7 | 15.8 | 26 | 22.3 | 42.4
COc1ccc2c(c1)OC(C)(C)CN(C(=O)CCS)C2 |  | 16.5 | 35.7 | 34.7 | 28.4 | 37 | 51.6 |  | 22.4 | 49 | 29.5 | 60.8
Cc1cc(OC(F)F)c(C(=O)NCCS)s1 | 38.6 | 23.9 | 33.8 | 15.6 | 28.9 | 23.4 | 40.2 | 35.9 | 22 | 22.6 | 20.1 | 36.4
O=C(NCCS)c1ccc(C(F)(F)F)c(=O)[nH]1 | 41 | 20.1 | 27.6 | 18.7 | 55.8 | 21.2 | 42.4 | 37 | 31.5 | 29.3 | 41.7 | 45.2
Cc1cc(NC(=O)CCS)nn1CC(N)=O |  | 11.4 | 23.6 | 26.9 | 30.6 | 25 | 18.9 |  | 21.3 | 31 | 28.2 | 39.6
O=C(NCCS)c1c(C2CC2)nc2sccn12 | 46.8 | 34.4 | 55.4 | 27.2 | 36 | 43.5 | 70.7 | 54.7 | 35.2 | 28.8 | 31.4 | 67.8
O=C(CCS)NCC(O)(c1ncco1)C(F)(F)F (configuration not stated) |  | 9.4 | 32.3 | 29.5 | 31.9 | 32.9 | 13.7 |  | 19.9 | 35.5 | 35.7 | 42.9
CC1(C(=O)NCCS)CCN(c2ccncc2)CC1 | 55.5 | 12.6 | 46.2 | 41.7 | 33.5 | 62.6 | 31.2 | 50.8 | 36.6 | 33.3 | 35.6 | 55.2
O=C(CCS)NC1(Cc2ccc(F)cc2)CC1 |  | 13.5 | 35.4 | 40.7 | 22.2 | 26 | 38.1 |  | 23.8 | 42.8 | 31.5 | 44.6
O=C(NCCS)c1cncc(-c2ccc3c(c2)CCO3)c1 | 24.4 | 16.1 | 16.7 | 12.7 | 18.2 | 12.7 | 59.2 | 39.5 | 14 | 14.8 | 11.7 | 20.9
CN1Cc2ccc(CNC(=O)CCS)cc2C1 |  | 0 | 17.5 | 35.3 | 12.5 | 35.5 | 8.6 |  | 7.5 | 19.7 | 21.3 | 44.2
COc1cccc2c1CCN(C(=O)CCS)CC2 |  | 23.3 | 41.4 | 30.5 | 32.7 | 28.8 | 54.1 |  | 31.1 | 27.4 | 30.2 | 56.2
Cc1ccc(CNC(=O)CCS)c(OC2CCCC2)c1 |  | 7.2 | 20.9 | 17.5 | 15.5 | 14.1 | 29.2 |  | 22 | 16.6 | 14.2 | 33.4
CN(Cc1ccccc1C(F)(F)F)C(=O)CCS |  | 26.4 | 45.2 | 27.4 | 34.7 | 31.9 | 46.9 |  | 27.4 | 29.1 | 30.1 | 51.2
Cc1cc(=O)[nH]c(N2CCN(C(=O)CCS)CC2)n1 |  | 9.3 | 28.2 | 36.1 | 34.4 | 35.7 | 13.1 |  | 21 | 30.2 | 29.6 | 55.5
